According to the antibiotic and cytotoxicity screens of Wong et al. (2023):
The other results are listed elsewhere or left out.

Tests used:
HSkMC = human skeletal muscle cells; assay: cytotoxicity call (relative viability < 0.9); conditions: 10 µM
HepG2 = assay: cytotoxicity call (relative viability < 0.9); conditions: 10 µM
S. aureus RN4220 = assay: growth inhibition call (relative growth <= 0.2); conditions: 50 µM

COc1ccc(S(=O)(=O)N(C)C[C@@H]2Oc3ccc(NC(=O)NC(C)C)cc3C(=O)N([C@@H](C)CO)C[C@H]2C)cc1
inactive: cytotoxicity call (HSkMC) | cytotoxicity call (HepG2) | growth inhibition call (S. aureus RN4220)

C[C@@H]1CN([C@@H](C)CO)C(=O)c2cc(NC(=O)CCCN(C)C)ccc2O[C@@H](C)CCCCO[C@@H]1CN(C)C
inactive: cytotoxicity call (HSkMC) | cytotoxicity call (HepG2) | growth inhibition call (S. aureus RN4220)

Nc1ccc(S(=O)(=O)[O-])cc1.Nc1ccc(S(=O)(=O)[O-])cc1.[Zn+2]
inactive: cytotoxicity call (HSkMC) | cytotoxicity call (HepG2) | growth inhibition call (S. aureus RN4220)

O=C(C[C@@H]1CC[C@@H]2[C@H](COC[C@H](O)CN2S(=O)(=O)c2cccc(Cl)c2)O1)NCc1ccc2c(c1)OCO2
inactive: cytotoxicity call (HSkMC) | cytotoxicity call (HepG2) | growth inhibition call (S. aureus RN4220)

C[C@@H]1CN([C@H](C)CO)C(=O)c2cc(NC(=O)Nc3ccc(F)cc3)ccc2O[C@@H](C)CCCCO[C@@H]1CN(C)S(=O)(=O)c1ccccc1
inactive: cytotoxicity call (HSkMC) | cytotoxicity call (HepG2) | growth inhibition call (S. aureus RN4220)

C[C@@H]1CN([C@@H](C)CO)C(=O)CCCn2nncc2CO[C@H]1CN(C)C(=O)C1CC1
inactive: cytotoxicity call (HSkMC) | cytotoxicity call (HepG2) | growth inhibition call (S. aureus RN4220)

C[C@@H]1CN([C@@H](C)CO)C(=O)Cc2cc(NC(=O)Nc3ccc(C(F)(F)F)cc3)ccc2O[C@@H]1CN(C)S(C)(=O)=O
inactive: cytotoxicity call (HSkMC) | cytotoxicity call (HepG2) | growth inhibition call (S. aureus RN4220)

C[C@@H]1CN([C@H](C)CO)S(=O)(=O)c2ccc(C#Cc3ccccc3F)cc2O[C@@H]1CN(C)C(=O)c1ccc2c(c1)OCO2
inactive: cytotoxicity call (HSkMC) | cytotoxicity call (HepG2) | growth inhibition call (S. aureus RN4220)

C[C@@H]1CCCCO[C@H](CN(C)S(C)(=O)=O)[C@H](C)CN([C@@H](C)CO)C(=O)c2cc(NC(=O)CCCN(C)C)ccc2O1
inactive: cytotoxicity call (HSkMC) | cytotoxicity call (HepG2) | growth inhibition call (S. aureus RN4220)
